Measured values from PubChem BioAssay AID540267 (National Center for Advancing Translational Sciences (NCATS), 2011).
About 530 (0.16%) of roughly 340,000 compounds were called active. The inconclusive results got no clear call from the source; some entries with a clear call stand among them for comparison. Cut-off read from the data, not from the text of the source: active = activity change below about -80%; inconclusive = between about -30% and that limit; inactive = weaker than that.

Test: Small Molecules that selectively kill Giardia lamblia: qHTS;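 note: parasites exposed to compound for two days anaerobically before the ATP read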
Conditions: Giardia lamblia trophozoite viability; at 7.66 µM; stronger effect = lower value
Method in brief: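 Luminescent ATP signal served as the viability read-out, measured 15-30 min after adding ATP detection reagent to trophozoites that had been incubated with compounds for 48 hrs at 37 deg C anaerobically at 100 cells/well.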
% is set by controls: 0 for no effect and ±100 for the full control effect.

Structure (SMILES) | activity change
COc1ccc(C(=O)Nc2ccccc2C(=O)N/N=C/c2cccc3ccccc23)cc1 | active: -95.4%
COc1ccc2cc3cc(C(=O)NCc4ccco4)oc3nc2c1 | inactive: -11.4%
Cc1cccc[n+]1CC(=O)Nc1cccc([N+](=O)[O-])c1 | inactive: 5.23%
Cc1onc(-c2ccccc2)c1C(=O)N/N=C/c1ccc([N+](=O)[O-])s1 | inconclusive: -62.7% [inhibitor]
COc1cc(C(=O)NC(=S)NNC(=O)c2cnccn2)cc(OC)c1OC | inconclusive: -40.6% [inhibitor]
O=C(CNC(=O)c1ccccc1O)N/N=C/c1cc(Br)ccc1OC(=O)/C=C/c1ccco1 | inactive: -13.4%
CC(/C=N/Nc1nc2ccccc2[nH]1)=C\c1ccccc1 | inconclusive: -39.8% [inhibitor]
Cc1ccc[n+](/C(=C\C(=C=[N-])C#N)C(=O)c2ccc(Cl)cc2)c1 | inactive: 18%
Cc1nc2ccc(-c3nc4ccc(N)cc4[nH]3)cc2[nH]1 | inconclusive: -37.4% [inhibitor]
Cc1ccc(S(=O)(=O)/N=C(/NNC(=O)c2cccc(Cl)c2)c2ccccc2)cc1 | inconclusive: -30.9% [inhibitor]
C#CCOCCOCCOCCNc1nc(N2CCN(C(=O)[C@H]([C@@H](C)CC)n3cc(CCCN=C(N)N)nn3)CC2)nc(N2CCN(C(=O)[C@H](CCCCN)n3cc(CCCC)nn3)CC2)n1 | inconclusive: -40.1% [inhibitor]
CCOC(=O)CNc1nc(Cl)nc(Nc2ccc(C)cc2)n1 | inactive: -1.75%
CC1CN(Cc2cc(=O)oc3cc(O)c(Cl)cc23)CC(C)O1 (stereo not given) | inconclusive: -37.5% [inhibitor]
CCCNC(=O)c1cc(-c2ccc3c(c2)OCO3)on1 | inconclusive: -33.3% [inhibitor]
CC(NC(=O)COc1cccnc1[N+](=O)[O-])c1ccc(Cl)cc1Cl (stereo not given) | inconclusive: -56% [inhibitor]
CC(NC(=O)COc1ccc(S(=O)(=O)N2CCOCC2)cc1)c1ccccc1 (stereo not given) | inconclusive: -30.7% [inhibitor]
COc1ccccc1CNC(=O)C(=O)c1cn(CC(=O)N2CCOCC2)c2ccccc12 | inconclusive: -32.3% [inhibitor]
COc1ccc(NC(=O)[C@@H]2CC=C[C@@H]3CCN(Cc4ccccc4)C(=O)[C@@H]32)cc1 | inactive: 8.6%
COc1ccc(-c2ccc3c(c2)S(=O)(=O)c2cccc(C(=O)N4CCN(C5CCCCC5)CC4)c2C3=O)cc1OC | inconclusive: -30.4% [inhibitor]
COc1ccc(CC(=O)N2CCc3cc(OC)c(OC)cc3C2O)cc1OC (stereo not given) | inconclusive: -32.3% [inhibitor]
CSCCC(NC(=O)OC(C)(C)C)C(=O)Oc1ccc2c(=O)c(-c3ccc4c(c3)OCCO4)coc2c1 (stereo not given) | inconclusive: -60.6% [inhibitor]
COCCN1CC(C(=O)NCCc2nc(C)c(C)s2)CCC1=O (stereo not given) | inactive: 3.64%
Cn1c(=NC(=O)c2ccco2)sc2ccccc21 | inconclusive: -35.9% [inhibitor]
COc1c(C)cc(Br)cc1C(=O)NC(=S)Nc1ccc(Cl)c(C(=O)O)c1 | inconclusive: -33.2% [inhibitor]
COc1cc(OC)c(NS(=O)(=O)c2c(C)[nH]c(=O)[nH]c2=O)cc1Cl | inconclusive: -37.8% [inhibitor]

Structure (SMILES) | activity change
O=[N+]([O-])c1ccc(N/N=C/c2cccc(O)c2O)c(S(=O)(=O)N2CCOCC2)c1 | inconclusive: -43.5% [inhibitor]
CC1=C(C(=O)OCC2CCCO2)C(c2ccsc2)C2=C(CCCC2=O)N1 (stereo not given) | inactive: 16.7%
Nc1nc2ccccc2n1/N=C/c1ccc([N+](=O)[O-])s1 | inconclusive: -79.3% [inhibitor]
ONC(=Nc1ccc(Cl)cc1)c1ccc(Cl)cc1 | inconclusive: -31.1% [inhibitor]
C/C(=N\NC(=O)c1cccnc1)c1cccc([N+](=O)[O-])c1 | inconclusive: -36.4% [inhibitor]
COC(=O)c1cn(-c2ccccc2)nc1-c1ccc(OC)c(OC)c1 | inconclusive: -31.4% [inhibitor]
CCNC(=S)N1CCN(CCNC2=CC(=O)CC(C)(C)C2)CC1 | inconclusive: -33.1% [inhibitor]
COc1cccc(C2c3c(oc4ccccc4c3=O)C(=O)N2CCCN(C)C)c1OC (stereo not given) | inconclusive: -40.6% [inhibitor]
COc1ccccc1N1CCN(C(CNS(=O)(=O)c2cc(F)ccc2F)c2cccnc2)CC1 (stereo not given) | inconclusive: -35.2% [inhibitor]
N#CC1(C#N)CC(C=O)=C(N)C1(C#N)CC(=O)c1ccc(F)cc1 (stereo not given) | inconclusive: -32.4% [inhibitor]
COCC1CCN(c2nc3nonc3nc2N2CCSCC2)C1 (stereo not given) | inconclusive: -36.7% [inhibitor]
O=c1c2ccccc2nc2n1C(CSCc1ccc(Cl)cc1)CS2 (stereo not given) | inactive: 0.673%
CNC(=S)N(CCc1ccc(S(N)(=O)=O)cc1)C1CC(=O)N(c2ccccc2F)C1=O (stereo not given) | inactive: 22%
CC1CCN(C(=O)CCc2nnc(-c3ccccc3)o2)CC1 | inconclusive: -34.4% [inhibitor]
O=C(CSc1nnc(NC(=O)c2ccc3c(c2)OCO3)s1)NCc1ccco1 | inconclusive: -74.9% [inhibitor]
Cc1ccc(OCC(=O)Nc2nc(C)c(Cl)cc2Cl)c([N+](=O)[O-])n1 | inconclusive: -60.5% [inhibitor]
Cc1cnc([N+](=O)[O-])n1CCOC(=O)NC(=O)c1ccccc1Cl | inconclusive: -77.8% [inhibitor]
CCOCCCNC(=O)C1CC(=O)N(CCc2ccccc2)C1 (stereo not given) | inconclusive: -33% [inhibitor]
COc1ccc2nc(NC(=O)c3ccc([N+](=O)[O-])o3)sc2c1 | active: -96.7%
O=C(CNC(=O)c1ccccc1F)Nc1ccc2c(c1)OCO2 | inconclusive: -31.1% [inhibitor]
CCc1ccn2cc(-c3cc(-c4ccccc4)no3)nc2c1 | inconclusive: -43.3% [inhibitor]
CCCS(=O)(=O)N1CCC(Cc2ccc(OC)cc2)(C(=O)OCC)CC1 | inactive: 6.91%
Cc1ccc2ncc([N+](=O)[O-])n2c1 | inconclusive: -38.6% [inhibitor]
S=C(NCCc1ccccc1)Nc1ccc(Cl)cc1 | inactive: -20.3%
CCCN(Cc1ccc(N(C)C)cc1)CC1CC1 | inactive: 11.2%

Structure (SMILES) | activity change
O=C(NC1CCCCC1)C(c1ccccc1)N(C(=O)Cc1ccsc1)c1ccccc1 (stereo not given) | inactive: -10%
COc1cc([N+](=O)[O-])ccc1NC(=O)NCc1cccnc1 | inconclusive: -36.7% [inhibitor]
CC(=O)Oc1ccc(C#C/C=C2\c3ccccc3C(=O)N2c2ccccc2)cc1 | inactive: -5.64%
C=CCN(c1ccccc1OC)S(=O)(=O)c1cccc(C(=O)OC2CCOC2=O)c1 (stereo not given) | inactive: -7.17%
CC(C)(C)C(=O)Cn1ncc(N2CCOCC2)c(Cl)c1=O | inconclusive: -33.6% [inhibitor]
O=C(Nc1nnc(C2=COCCO2)o1)c1cccc(F)c1 | inconclusive: -47% [inhibitor]
CC(C)NC(=O)c1onc(CSc2cccc(Cl)c2)c1C(=O)O | inconclusive: -30.5% [inhibitor]
CCOC(=O)[C@H]1[C@H]2COc3ccc(Cl)cc3[C@@H]2N2C(=O)c3ccc(C)cc3NC(=O)[C@@]12C | inconclusive: -55% [inhibitor]
Cc1cccc(NC(=O)C2CCN(c3ncnc4c3nc3n4CCCCC3)CC2)n1 | inactive: -16.4%
O=C(CSc1ccsc1[N+](=O)[O-])NCc1ccccc1 | inconclusive: -67.3% [inhibitor]
Cc1ccc(C(=O)Nc2ccc(NC(=O)c3ccco3)c(C)c2)cc1 | inconclusive: -31.2% [inhibitor]
COc1ccc(NC(=O)c2ccccc2NC(=O)CN2CCCCCC2)cc1 | inconclusive: -41.7% [inhibitor]
O=C(OCC(=O)N1CCOCC1)c1ccc(N2CCOCC2)c([N+](=O)[O-])c1 | inconclusive: -30.7% [inhibitor]
CC(=O)Nc1ccc(NC(=O)C(C)OC(=O)c2ccccc2NS(=O)(=O)c2cccs2)cc1 (stereo not given) | inactive: 3.73%
O=C1C=C(c2ccc(-c3ccccc3)c(F)c2)C[C@@H](c2ccc(F)cc2)C1 | inconclusive: -44.2% [inhibitor]
C/C(=N\Nc1ccc(C)c(Cl)c1)c1ccncc1 | inactive: 1.98%
COc1ccc(NS(=O)(=O)c2cccc(C(=O)NCC3(N4CCCCC4)CCCCC3)c2)cc1 | inactive: -3.14%
CC(C)CNC1CS(=O)(=O)CC1O (stereo not given) | inactive: -15.2%
O=C(Nc1ccc(C2=NCCN2)cc1)c1ccc(C(=O)Nc2ccc(C3=NCCN3)cc2)c([N+](=O)[O-])c1 | inconclusive: -34.9% [inhibitor]
COc1ccc(Cl)cc1NC(=O)c1cccc(N2C(=O)C3CC=CCC3C2=O)c1 (stereo not given) | inconclusive: -40.4% [inhibitor]
COCCN(C)C(=O)CC1C(=O)NCCN1CC(c1ccccc1)c1ccccc1 (stereo not given) | inconclusive: -31.8% [inhibitor]
CCn1c(CNC(=O)c2ccc(Cl)cc2)nnc1SCC(=O)N1CCOCC1 | inactive: -23.1%
CCOC(=O)CC1=C(C(=O)OCC)C(c2ccc(OC)cc2OC)C(C#N)=C(N)O1 (stereo not given) | inactive: -10.4%
CSCCC(NC(=O)c1ccccc1Cl)C(=O)Nc1ccc(C)c(S(=O)(=O)N2CCOCC2)c1 (stereo not given) | inactive: 2.72%
C=CC[C@@H](Cc1ccc(F)cc1)C(=O)OC[C@@H]1CCCN1C(=O)[C@@H](CC=C)CC(=O)N[C@@H](CO)Cc1ccccc1 | inconclusive: -37% [inhibitor]
